Assay results: patent publication US20040258705A1, “Use of lectins to promote oligomerization of glycoproteins and antigenic molecules” (Antigenics Inc., priority 2003, published 2004)

Experiments:
[1] = tested on: AH1 specific T-cells and RAW264.7 APC cells
From the text: Materials: the antigen presenting cell line, RAW264.7 (ATCC #TIB-71), was used in these experiments. It is an Abelson murine leukemia virus transformed macrophage cell line, which originated from the BALB/c strain (H-2d). Cytotoxic T Lymphocyte (CTLs): T cells specific for the CT26 tumor peptide were obtained from the University of Connecticut Medical Center. These T cells are specific for the AH1 epitope, amino acid sequence […]. These CTLs are re-stimulated on a weekly basis with the AH19 mer peptide plus irradiated BALB/c splenocytes. AIM V (Gibco-BRL) tissue culture medium was used. […] Proteases are undesirable in that they may digest elongated peptides to a smaller size able to surface load on MHC molecule inducing a CTL response independent of antigen representation. CT26 derived gp96 was purified from mouse tumors using both the buffer exchange and non-buffer exchange processes. AH1 19 mer ([…] ) alone was added as a negative control, as well as gp96 derived from normal mouse organs. AH1 9 mer ([…]), which can surface load and prime for CTL recognition was used as a positive control. An additional positive control included mouse derived gp96 complexed with AH1 19 mer peptide.
Preparation of CT26 Derived gp96: CT26 derived gp96 was purified from solid tumors. Mouse tumor was homogenized and clarified by centrifugation. The cell-free supernatant was subjected to a 50% ammonium sulfate precipitation. The resulting supernatant was further purified using ConA and DEAE chromatography. Protein was filter sterilized (0.22 μm), aliquoted and stored at −80±20° C. until use.
Preparation of gp96-AH119 mer complexes (complex positive control samples): AHI 19 merpeptide, dissolved in H2O, was added to gp96 at a 50:1 molar ratio. […] After incubation, samples were washed 4× with 5 ml PBS using a 30K MWCO Centricon spin filter unit (Millipore) and analyzed for protein concentration by the Bradford Assay. […]
After incubation, cells were pelleted by centrifugation at 1000 rpm for 5 minutes at 4° C. […] IFN—Y levels were measured by ELISA (R&D Systems). […]

[2] = tested on: human CD71-specific T cell hybridomas co-cultured with RAW264.7 cells; assay: CD71 in vitro representation assay; assay type: cell-based, murine (BALB/c); settings: for in vitro antigen representation in the CD71 system: human liver gp96 samples, protein concentration of 75 μg/mL

Molecule: CO[C@H]1O[C@H](CO)[C@@H](O)[C@H](O)[C@@H]1O [α-MM, Methyl α-D-Mannopyranoside]
- viabilities of APC or T cells [1]: does not affect the viabilities
- effect on CT26 antigen representation ([1]; CT26-derived gp96 (Bx process) incubated 30 minutes with 50, 100 or 400 mM α-MM, diluted 1 in 5, INF-γ ELISA): dose-dependent decrease

Molecule: Concanavalin A [Con A]
- effect of Con A on T cells alone ([2]; Con A at 7.5 ng/μg total protein, T cells without APCs): no effect on T cells alone

Molecule: human renal tumor gp96 (Bx): gp96-peptide complex from human renal tumors, buffer exchange step between Con A and DEAE columns, increased Con A
- in vitro antigen representation using the CD71 system ([2]; human renal tumor gp96, tumors A through D, versus homogenate-matched sample prepared without buffer exchange, IL-2 ELISA): higher in vitro representation activity

Molecule: sample #1: human liver gp96 produced with buffer exchange step; con A content 7.5 ng/ug total protein
- in vitro antigen representation in the CD71 system [2]: more active in vitro

Molecule: scFv gp96: human liver gp96 purified on gp96-specific scFv column, no con A column step; 0 ng/ug con A
- in vitro antigen representation in the CD71 system [2]: low in vitro activity similar to sample A

B1: CT26 gp96 (Bx): gp96 from murine CT26 tumor, prepared with buffer exchange step, increased amount of con A (protein, UniProt P08113 22-802, looked up)
Endoplasmin: DDEVDVDGTVEEDLGKSREGSRTDDEVVQREEEAIQLDGLNASQIRELREKSEKFAFQAEVNRMMKLIINSLYKNKEIFLRELISNASDALDKIRLISLTDENALAGNEELTVKIKCDKEKNLLHVTDTGVGMTREELVKNLGTIAKSGTSEFLNKMTEAQEDGQSTSELIGQFGVGFYSAFLVADKVIVTSKHNNDTQHIWESDSNEFSVIADPRGNTLGRGTTITLVLKEEASDYLELDTIKNLVRKYSQFINFPIYVWSSKTETVEEPLEEDEAAKEEKEESDDEAAVEEEEEEKKPKTKKVEKTVWDWELMNDIKPIWQRPSKEVEEDEYKAFYKSFSKESDDPMAYIHFTAEGEVTFKSILFVPTSAPRGLFDEYGSKKSDYIKLYVRRVFITDDFHDMMPKYLNFVKGVVDSDDLPLNVSRETLQQHKLLKVIRKKLVRKTLDMIKKIADEKYNDTFWKEFGTNIKLGVIEDHSNRTRLAKLLRFQSSHHSTDITSLDQYVERMKEKQDKIYFMAGSSRKEAESSPFVERLLKKGYEVIYLTEPVDEYCIQALPEFDGKRFQNVAKEGVKFDESEKTKESREATEKEFEPLLNWMKDKALKDKIEKAVVSQRLTESPCALVASQYGWSGNMERIMKAQAYQTGKDISTNYYASQKKTFEINPRHPLIRDMLRRIKEDEDDKTVMDLAVVLFETATLRSGYLLPDTKAYGDRIERMLRLSLNIDPEAQVEEEPEEEPEDTSEDAEDSEQDEGEEMDAGTEEEEEETEKESTEKDEL
modifications: CT26 tumor-derived; contains Con A
- in vitro antigen representation using the CT26 system ([1]; CT26 tumor gp96, Preps A and B, versus matched sample without buffer exchange, IFN-γ ELISA): higher in vitro representation activity
